Experimental data as given in the supplement of paper PMC4967469.

Assays:
Test in all cases: Viability of human cancer cell lines after 72 h of drug (GDSC screen)
[1] = compound: C/C(O)=C(\C#N)C(=O)Nc1cc(Br)ccc1Br [LFM-A13]; conditions: top dose 16 µM; top dose inferred
Description: (§1)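 Human cancer cell lines in 384-well plates, medium with 10% serum, drug for 72 h over a 256-fold dose range (nine 2-fold or five 4-fold steps up to the top dose). Adherent lines were fixed and stained with the nucleic acid dye Syto60, suspension lines read with resazurin; signal relative to control wells, capped at 0 and 100%. One two-parameter sigmoid per drug and line, fitted in a mixed model over all curves with the slope shared within a line.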

[2] = compound: CC(C)c1ccccc1Cc1cc(C(=O)Nc2ccc(S(=O)(=O)c3ccccc3C(C)(C)C)cc2)c(O)c(O)c1O [TW-37]; conditions: top dose 5 µM
Description: as §1

[3] = compound: CC(O)(CS(=O)(=O)c1ccc(F)cc1)C(=O)Nc1ccc(C#N)c(C(F)(F)F)c1 [Bicalutamide]; conditions: top dose inferred
Description: as §1

[4] = compound: CCNC(=O)c1noc(-c2cc(C(C)C)c(O)cc2O)c1-c1ccc(CN2CCOCC2)cc1 [AUY922]; conditions: top dose 0.256 µM; top dose inferred
Description: as §1

[5] = compound: Cc1ccc(Nc2cc(-c3cccc(N4C(=O)c5ccccc5C4=O)c3)ncn2)cc1NS(C)(=O)=O [KIN001-270]; conditions: top dose 20 µM; top dose inferred
Description: as §1

[6] = compound: Cc1cn(-c2cc(NC(=O)c3ccc(C)c(Nc4nccc(-c5cccnc5)n4)c3)cc(C(F)(F)F)c2)cn1 [Nilotinib]; conditions: top dose 2 µM
Description: as §1

[7] = compound: Nc1ccn([C@@H]2O[C@H](CO)[C@@H](O)C2(F)F)c(=O)n1 [Gemcitabine]; conditions: top dose 1.024 µM
Description: as §1

[8] = compound: O=S(=O)(c1ccccc1)N(CC(F)(F)F)c1ccc(C(O)(C(F)(F)F)C(F)(F)F)cc1 [T0901317]; conditions: top dose 10.24 µM; top dose inferred
Description: as §1

[9] = compound: S=C(NCc1ccc2c(c1)OCO2)N1CCN(c2ncnc3c2oc2ccccc23)CC1 [MP470]; conditions: top dose 20 µM; top dose inferred
Description: as §1

[10] = top dose 1.024 µM, screen: GDSC drug entry 150
[11] = top dose 10 µM, screen: GDSC drug entry 1502

Cell Line | AUC [1] | IC50 [1] [nM] | AUC [2] | IC50 [2] [nM] | AUC [3, 10] | IC50 [3, 10] [nM] | AUC [3, 11] | IC50 [3, 11] [nM] | AUC [4] | IC50 [4] [nM] | AUC [5] | IC50 [5] [nM] | AUC [6] | IC50 [6] [nM] | AUC [7] | IC50 [7] [nM] | AUC [8] | IC50 [8] [nM] | AUC [9] | IC50 [9] [nM]
UACC-62 (melanoma, adherent) | 0.957 | > 16000 | 0.309 | 91.5 | 0.987 | > 1020 | 0.965 | > 10000 | 0.747 | 80.8 | 0.978 | > 20000 | 0.983 | > 2000 | 0.829 | 628 | 0.98 | > 10200 | 0.952 | > 20000
UACC-893 (breast, adherent) | 0.9 | > 16000 | 0.708 | 1490 | 0.983 | > 1020 | 0.942 | > 10000 | 0.683 | 62.2 | 0.961 | > 20000 | 0.972 | > 2000 | 0.923 | > 1020 | 0.975 | > 10200 | 0.675 | 4570
VAL (B-cell lymphoma, suspension) | 0.929 | > 16000 | 0.464 | 249 | 0.985 | > 1020 | – | – | 0.818 | 145 | 0.889 | > 20000 | 0.946 | > 2000 | 0.733 | 296 | 0.925 | > 10200 | 0.586 | 2150
VMRC-MELG (melanoma, adherent) | 0.952 | > 16000 | 0.533 | 387 | 0.989 | > 1020 | – | – | 0.619 | 34.6 | 0.985 | > 20000 | 0.988 | > 2000 | 0.985 | > 1020 | 0.982 | > 10200 | 0.958 | > 20000
VMRC-RCZ (kidney, adherent) | 0.922 | > 16000 | 0.872 | > 5000 | 0.983 | > 1020 | 0.976 | > 10000 | 0.489 | 14.9 | 0.977 | > 20000 | 0.982 | > 2000 | 0.111 | < 4 | 0.954 | > 10200 | 0.925 | > 20000
WM35 (melanoma, adherent) | 0.969 | > 16000 | 0.447 | 224 | 0.986 | > 1020 | 0.977 | > 10000 | 0.513 | 17.4 | 0.974 | > 20000 | 0.971 | > 2000 | 0.158 | 5.61 | 0.986 | > 10200 | 0.842 | 14200
WM278 (melanoma, adherent) | 0.955 | > 16000 | 0.576 | 518 | 0.984 | > 1020 | 0.978 | > 10000 | 0.49 | 14.9 | 0.979 | > 20000 | 0.924 | > 2000 | 0.617 | 141 | 0.984 | > 10200 | 0.973 | > 20000

Lines with a small IC50 respond at low doses; a limit (>, <) means that the fit lies beyond the doses tested. For AUC the same curve is integrated over the 256-fold range of doses and scaled to a fraction: 1 means no effect, lower means more sensitive. For some of these results: Where the top dose is marked as inferred, it was calculated from the reported fits. For some of these results: Where an entry number is given, a second screen of the drug exists; the two often differ.
